The record followed here is paper PMC4336329 (PLoS ONE, 2015).

Screen size: about 310,000 compounds; about 14,000 (4.5%) showed an effect of 50% or more. The effect is printed as a negative number. The list shows a part of the results.
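Also: peak tail current of the secondary pulse compared with the same well before compound.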

The target of the test is human ether-à-go-go-related gene (hERG) potassium channel (human, UniProt Q12809). Briefly: primary screen, population patch clamp on CHO cells stably expressing hERG.
human ether-à-go-go-related gene (hERG) potassium channel, sequence (Q12809 whole entry, looked up): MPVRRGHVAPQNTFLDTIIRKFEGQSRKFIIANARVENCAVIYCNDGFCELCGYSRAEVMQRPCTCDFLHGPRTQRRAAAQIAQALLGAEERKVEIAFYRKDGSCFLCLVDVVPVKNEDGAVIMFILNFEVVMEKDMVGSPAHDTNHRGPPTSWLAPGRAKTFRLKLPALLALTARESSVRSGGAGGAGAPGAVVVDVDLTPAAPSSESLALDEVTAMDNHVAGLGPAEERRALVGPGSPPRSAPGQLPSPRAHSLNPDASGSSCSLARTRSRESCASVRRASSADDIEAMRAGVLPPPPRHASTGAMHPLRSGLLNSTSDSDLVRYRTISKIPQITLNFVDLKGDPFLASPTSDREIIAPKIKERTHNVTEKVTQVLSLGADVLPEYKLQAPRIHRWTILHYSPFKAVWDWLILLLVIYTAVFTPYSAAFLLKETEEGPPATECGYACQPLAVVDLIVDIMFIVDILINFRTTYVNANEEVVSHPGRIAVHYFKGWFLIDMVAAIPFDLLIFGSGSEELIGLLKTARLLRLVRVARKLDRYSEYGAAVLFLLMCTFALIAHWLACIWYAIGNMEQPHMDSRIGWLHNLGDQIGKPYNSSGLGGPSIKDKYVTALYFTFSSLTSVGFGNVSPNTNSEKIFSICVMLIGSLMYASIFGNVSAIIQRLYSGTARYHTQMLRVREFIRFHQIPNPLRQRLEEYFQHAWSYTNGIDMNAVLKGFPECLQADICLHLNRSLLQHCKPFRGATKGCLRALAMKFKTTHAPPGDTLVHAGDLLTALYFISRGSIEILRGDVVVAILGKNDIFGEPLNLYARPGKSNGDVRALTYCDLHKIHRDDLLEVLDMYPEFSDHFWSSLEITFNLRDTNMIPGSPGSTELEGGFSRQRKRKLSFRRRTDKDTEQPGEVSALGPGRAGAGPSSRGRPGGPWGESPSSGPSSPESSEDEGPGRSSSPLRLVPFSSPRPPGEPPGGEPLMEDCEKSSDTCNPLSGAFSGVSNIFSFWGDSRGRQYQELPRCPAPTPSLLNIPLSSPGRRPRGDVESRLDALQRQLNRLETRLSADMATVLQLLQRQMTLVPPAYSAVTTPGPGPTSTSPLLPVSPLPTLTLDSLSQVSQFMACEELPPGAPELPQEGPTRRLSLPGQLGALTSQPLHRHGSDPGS
As for `c1ccc(Nc2nc(N3CCCC3)nc(N3CCCC3)n2)cc1`, the “hERG current change (%, negative = inhibition) at 10uM” value is recorded as 13.1%. `CCCCNc1nc2c(c(=O)n(C)c(=O)n2C)n1Cc1cccc(OC)c1`: the “hERG current change (%, negative = inhibition) at 10uM” value is listed as -28.5%. As for `O=C(NCc1ccco1)C1(c2ccc(Cl)cc2)CCCC1`, the figure is 1.27%; as for `Cc1cc(NC(=O)C(C)SCC(=O)N(C)Cc2ccccc2F)no1` (centres unmarked), -1.71%; as for `CN1C(=O)C(C)(C)c2cc(S(=O)(=O)NCC3CCC(C(=O)NC4CCCCC4)CC3)ccc21` (centres unmarked), -13%. On to `O=C(CCc1nnc2ccc(NCc3ccco3)nn12)N1CCCCC1`, for which the “hERG current change (%, negative = inhibition) at 10uM” value was found to be 15.1%.

In the case of `O=C(CN1C(=O)NC2(CCCCCC2)C1=O)c1ccc2c(c1)OCCO2`, the “hERG current change (%, negative = inhibition) at 10uM” value is 0.349%. For `COc1cccc(NC(=O)C(=O)NCCc2ccc(F)cc2)c1`, the “hERG current change (%, negative = inhibition) at 10uM” value is 3.58%. The value for `Clc1ccc(N2CCN(c3cnc4ccccc4n3)CC2)cc1` was 18.4%; that for `O=C(O)C1=C[C@@H](c2ccc(C(F)(F)F)cc2)C[C@@H](OCCCCO)O1` was 12.6%. Consider `CCc1c(C)c2cc(Cl)c(O)c(CN(CC)CC)c2oc1=O`, for which the “hERG current change (%, negative = inhibition) at 10uM” value came to 0.288%. As for `Cc1cccc(N2CN(Cc3ccco3)CNC2=S)c1`, the “hERG current change (%, negative = inhibition) at 10uM” value was determined as 5.21%. The value for `COc1ccc(C(=O)N/N=C(/C)c2ccc(N3CCCCC3)cc2)cc1` was 8.63%; that for `CCOc1ccc(-n2c(=O)c3sccc3n(CC(=O)NCc3ccco3)c2=O)cc1` was -2.54%; that for `CN1c2ccccc2C(O)=C(C(=O)Nc2ccccc2)S1(=O)=O` was -4.37%. The value for `COCCN(C(=O)COC(=O)COc1ccc2c(c1)CCC2)c1c(N)n(Cc2ccccc2)c(=O)[nH]c1=O` was 16.9%; that for `O=C(COCc1cc(-c2ccc3c(c2)OCO3)on1)N1CCN(c2ccccc2)CC1` was 0.048%. The value for `CC(/C=C/c1ccco1)=N\NC(=O)c1cc(C)[nH]n1` was 5.55%; that for `CCOC(=O)c1cnn(-c2ccccc2)c1NC(=O)CSc1nnc(-c2cccs2)n1CC` was -69.5%. For the compound `O=C(Nc1cc(F)ccc1F)c1ccc(-n2cncn2)c([N+](=O)[O-])c1`, the “hERG current change (%, negative = inhibition) at 10uM” value is -5.31%. In the case of `O=C(Nc1nc(-c2ccc3c(c2)OCCO3)cs1)c1ccco1`, the “hERG current change (%, negative = inhibition) at 10uM” value came out at 8.53%. Consider `O=c1cc(Cn2ccnc2)c2cc(O)ccc2o1`, for which the “hERG current change (%, negative = inhibition) at 10uM” value was 19.9%.

In the case of `Cc1ccc(S(=O)(=O)N2CCC(C(=O)OCC(=O)N3CCC(C)CC3)CC2)cc1C`, the “hERG current change (%, negative = inhibition) at 10uM” value is 7.85%. Consider `COc1ccc2c3c([nH]c2c1)C1CC2C(CC(O)C(OC)C2C(=O)O)CN1CC3` (centres unmarked), for which the “hERG current change (%, negative = inhibition) at 10uM” value was found to be 20.7%.

Take `COC(=O)c1ccc(COc2ccc(C3C4=C(CCCC4=O)Nc4onc(C)c43)cc2)cc1` (centres unmarked): the “hERG current change (%, negative = inhibition) at 10uM” value is listed as -9.61%. Take `CCc1nnc(NC(=O)c2ccc(S(=O)(=O)N3CCOCC3)cc2)s1`: the “hERG current change (%, negative = inhibition) at 10uM” value is recorded as -0.412%. For `COc1ccc(NS(=O)(=O)c2csc(C(N)=O)c2)cc1OC`, the “hERG current change (%, negative = inhibition) at 10uM” value came to 20%. As for `CCn1c(SCC(=O)NNC(=S)Nc2ccccc2)nnc1-c1ccc(Cl)cc1`, the figure is -6.7%; as for `COc1cc(C(=O)Nc2c(C)cc(C)cc2C)c(Br)c(OC)c1OC`, 1.92%; as for `Cc1ccc(OCCCC(=O)N2CCOCC2)cc1`, 14.9%. Turning to `Cc1ccc(C(=O)NC(NC(=O)c2ccc(C)cc2)c2cccc([N+](=O)[O-])c2)cc1.O`, the “hERG current change (%, negative = inhibition) at 10uM” value amounted to 5.51%.

Turning to `CCO[C@H]1OC(C(=O)O)=C[C@@H](c2cn(C(C)=O)c3ccccc23)[C@@H]1CCCO`, the “hERG current change (%, negative = inhibition) at 10uM” value is recorded as 18.2%. As to `O=C(CCc1ccccc1)NC(=S)Nc1ccccc1Br`, the “hERG current change (%, negative = inhibition) at 10uM” value worked out at 19.9%. As for `CCC(=O)Nc1ccc2oc(-c3cccnc3)nc2c1`, the figure is 9.1%; as for `CN1C(=O)C(=Cc2cn(CC(=O)N3CCCCC3)c3ccccc23)C(=O)N(C)C1=O`, -0.441%.

In the case of `Cc1cccc(-c2ocnc2C(=O)Nc2ccccc2NC(=O)c2ccccn2)c1`, the “hERG current change (%, negative = inhibition) at 10uM” value is -15.8%. `O=C(NNC1=Nc2ccccc2SC1)c1cccc([N+](=O)[O-])c1`: the “hERG current change (%, negative = inhibition) at 10uM” value is listed as -11.5%. The value for `CC(C)c1ccc(CNc2ccc(N3CCOCC3)cc2)cc1` was 11.5%; that for `CC(C)CN1CCC(=O)N(CCC#N)CC1` was -7.02%; that for `COC(=O)C1CCCN1C(=O)c1cccs1` (centres unmarked) was 8.3%. Take `Cc1ccc(OCCCn2ccnc2)c(Br)c1`: the “hERG current change (%, negative = inhibition) at 10uM” value was -2.06%. As for `CCOC(=O)C1(CCc2ccccc2)CCN(Cc2ccccn2)CC1`, the figure is -74.3%; as for `O=C(NCCCn1ccnc1)NC(C(F)(F)F)C(F)(F)F`, 3.68%.

Take `Cn1ncc2c(Nc3ccc(Cl)cc3)ncnc21`: the “hERG current change (%, negative = inhibition) at 10uM” value came out at 3.42%. Take `O=C(CN1CCN(C(=O)C2CCCO2)CC1)Nc1ccc(Cl)c(Cl)c1` (centres unmarked): the “hERG current change (%, negative = inhibition) at 10uM” value is reported as -22.5%.

As to `O=C(COc1ccc(Cl)cc1)N1CCN(Cc2ccc([N+](=O)[O-])cc2)CC1.O=C(O)C(=O)O`, the “hERG current change (%, negative = inhibition) at 10uM” value is -74.2%. As to `CC(OC(=O)c1ccc(O)cc1)C(=O)Nc1nc(-c2ccccc2)cs1` (centres unmarked), the “hERG current change (%, negative = inhibition) at 10uM” value is on record as -17.8%. The value for `OCCCCC#Cc1c(-c2ccsc2)sc2ccccc12` was 0.229%; that for `Cc1ccc(NC(=O)CN2C(=O)NC(C)(c3ccc(Cl)cc3)C2=O)cc1` (centres unmarked) was 16.1%; that for `CC(=O)Nc1c2c3c(cccc3n(C)c1=O)C(=O)c1ccccc1-2` was -3.24%. Regarding `CCOC(=O)c1c(NC(=O)C2C3C=CC(C3)C2(C)C(=O)O)sc2c1CCCC2` (centres unmarked), the “hERG current change (%, negative = inhibition) at 10uM” value is on record as -1.33%.

`Clc1ccc(-c2n[nH]c3c2CCC3)cc1Cl`: the “hERG current change (%, negative = inhibition) at 10uM” value is on record as 20.4%.

Regarding `CCCn1c(=N)n(CC(O)c2ccc(C)cc2)c2ccccc21.Cl` (centres unmarked), the “hERG current change (%, negative = inhibition) at 10uM” value is -65.6%. Turning to `CCCCNC(=O)CS(=O)Cc1nc(-c2cccs2)oc1C` (centres unmarked), the “hERG current change (%, negative = inhibition) at 10uM” value is given as -21.1%. As for `CCC(CC)NC(=O)Nc1ccc(F)c(Cl)c1`, the figure is -7.65%; as for `N=c1c2c3c(sc2ncn1Nc1ccccc1)CCC3`, -29.6%. The value for `NC(=O)c1nsc(C(=O)N(Cc2cccnc2)C(C(=O)NCc2ccc(F)cc2)c2ccc(O)cc2)c1N` (centres unmarked) was -1.96%; that for `Nc1c(N(Cc2ccccc2)C(=O)COc2ccc(F)cc2)c(=O)[nH]c(=O)n1Cc1ccccc1` was 9%; that for `CN1CCN(c2ccc(/C=C3\C(=O)NC(=S)N(c4cccc(Br)c4)C3=O)o2)CC1` was -23.9%. Take `CCCCc1ccc(NC2=NCC(=O)N2CCc2ccccc2)cc1.Cl`: the “hERG current change (%, negative = inhibition) at 10uM” value is given as -11.4%. In the case of `O=C(Cc1nnc(NC(=O)Nc2ccccc2)s1)NCc1ccccc1`, the “hERG current change (%, negative = inhibition) at 10uM” value stood at 13.4%. As for `O=C(C[n+]1cc(-c2ccccc2)n2c1CCC2)c1cccs1.[Br-]`, the “hERG current change (%, negative = inhibition) at 10uM” value is reported as -3.31%. The value for `C[C@H](NC(=O)c1[nH]cnc1C(=O)N[C@H](C)c1ccccc1)c1ccccc1` was 5.82%; that for `COc1ccc(NC(=O)c2ccc(Cc3ccc(C)cc3)o2)cc1` was -23.5%; that for `COc1cccc(NC(=O)CSc2ncc(S(=O)(=O)c3ccccc3)c(=O)[nH]2)c1` was -3.71%. `CCOCCCNC(=O)C1CCN(S(=O)(=O)c2ccc(C)cc2)CC1`: the “hERG current change (%, negative = inhibition) at 10uM” value is on record as 8.68%. Regarding `O=C(N/N=C/c1ccncc1)c1cccc(N/N=C/c2ccncc2)c1`, the “hERG current change (%, negative = inhibition) at 10uM” value is -15.6%.

As for `O=C1c2ccccc2C(Nc2ccc3c(c2)OCO3)N1Cc1ccc2c(c1)OCO2` (centres unmarked), the “hERG current change (%, negative = inhibition) at 10uM” value amounted to 2.04%. As for `Cc1cccc(CCNC(=O)c2cc(S(=O)(=O)N3CCOCC3)cn2C)c1`, the “hERG current change (%, negative = inhibition) at 10uM” value is recorded as -19.1%. As to `COc1cc(C)ccc1S(=O)(=O)n1nc(C)cc1C`, the “hERG current change (%, negative = inhibition) at 10uM” value was 14.3%. `COc1ccc(-n2cc(C(=O)c3ccc4ccccc4c3O)cn2)cc1`: the “hERG current change (%, negative = inhibition) at 10uM” value is recorded as 24.3%. Take `O=C(Cc1ccccc1[N+](=O)[O-])OCc1cccc([N+](=O)[O-])c1`: the “hERG current change (%, negative = inhibition) at 10uM” value was -12.1%. On to `CC(=O)N1CCc2cc(Br)cc(S(=O)(=O)N3CCN(C(=O)c4ccco4)CC3)c21`, for which the “hERG current change (%, negative = inhibition) at 10uM” value is -7.03%. In the case of `COc1cccc(CN2CCN(C(=O)c3cc(-c4ccncc4)nc4ccc(C)cc34)CC2)c1`, the “hERG current change (%, negative = inhibition) at 10uM” value is -71%. `COc1ccc(Cl)cc1NC(=O)c1cnc2n(c1=O)CCS2`: the “hERG current change (%, negative = inhibition) at 10uM” value is on record as -1.56%. As for `CC(C)(C)n1nc(-c2ccc(F)cc2)c2c(N)ncnc21`, the figure is -4.74%; as for `O=C(NCc1ccc(Cl)cc1)C1=Cc2cc(Cl)ccc2OC1`, -10.2%.

With `O=C(/C=C/c1ccccc1)N/C(=C/c1ccccc1)C(=O)NCCO`, the “hERG current change (%, negative = inhibition) at 10uM” value is -11.6%.

Turning to `CN(C)S(=O)(=O)c1cccc(CSc2cccc[n+]2[O-])c1`, the “hERG current change (%, negative = inhibition) at 10uM” value came out at 7.51%. Take `CSc1nnc(C)c(/C=C/Nc2ccc(C)cc2)n1`: the “hERG current change (%, negative = inhibition) at 10uM” value came to 3.85%. Regarding `COCCCNCCCCOc1c(Cl)cc(C)cc1Br.O=C(O)C(=O)O`, the “hERG current change (%, negative = inhibition) at 10uM” value is reported as -49.2%. For the compound `O=C(CSc1nnnn1-c1cccc(F)c1)Nc1nc2ccccc2s1`, the “hERG current change (%, negative = inhibition) at 10uM” value is reported as 8.36%.

`CC(C)C[C@@]12C(=O)N(c3cccc(F)c3)C(=O)N1[C@H](c1ccc(Cl)cc1)[C@@H]1C(=O)N(C3CCCCC3)C(=O)[C@@H]12`: the “hERG current change (%, negative = inhibition) at 10uM” value was 13.2%. Turning to `C=C(C)CNC(=O)c1ccc2nc(Cc3ccc(OC)cc3)oc2c1`, the “hERG current change (%, negative = inhibition) at 10uM” value was 13.3%. Turning to `O=S(=O)(Nc1nc2ccccc2nc1NCC1CCCO1)c1ccc(F)cc1` (centres unmarked), the “hERG current change (%, negative = inhibition) at 10uM” value is listed as -1.06%. As to `CC(C)c1ccc(NC(=O)Cn2nnc(C(=O)NCc3ccco3)c2N)cc1`, the “hERG current change (%, negative = inhibition) at 10uM” value amounted to 28.9%.
